# Reference: PubChem BioAssay AID588453 (National Center for Advancing Translational Sciences (NCATS), 2011)
# The whole screen tested about 390,000 compounds, of which about 4,000 (1%) were called active. The shares of active, inactive and inconclusive entries below differ from those in the screen. The call rests on the fitted dose curve; in most records, active means well fitted inhibition curve with a large enough effect; inconclusive means small, poorly fitted or top-dose-only effect; inactive means no such curve, though single readings can be large or run the other way. A potency beside an inconclusive call is a rough fit, not a confirmed value.
# Target: Thioredoxin reductase 1, cytoplasmic (Rattus norvegicus) (UniProt O89049)
# Assay: qHTS Assay for Inhibitors of Mammalian Selenoprotein Thioredoxin Reductase 1 (TrxR1): qHTS; further: nearly all actives have a fitted effect of over 65% in size
# Conditions: recombinant rTrxR1, NADPH fluorescence consumption, selenite substrate; series mostly up to 114 µM
# Summary of the method: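 Rat TrxR1 (90 nM in the dispensed reagent) was pre-reduced with 400 uM NADPH for 5 min at room temperature, then incubated with compound for 15 min. After 400 uM selenite was added, NADPH fluorescence (Ex 340/Em 450 nm) was followed for 8 min.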
# Potency means the concentration at half of the fitted maximal effect; tags describe the fitted curve by direction and shape.
# Chain of UniProt O89049 (O89049 whole entry, looked up): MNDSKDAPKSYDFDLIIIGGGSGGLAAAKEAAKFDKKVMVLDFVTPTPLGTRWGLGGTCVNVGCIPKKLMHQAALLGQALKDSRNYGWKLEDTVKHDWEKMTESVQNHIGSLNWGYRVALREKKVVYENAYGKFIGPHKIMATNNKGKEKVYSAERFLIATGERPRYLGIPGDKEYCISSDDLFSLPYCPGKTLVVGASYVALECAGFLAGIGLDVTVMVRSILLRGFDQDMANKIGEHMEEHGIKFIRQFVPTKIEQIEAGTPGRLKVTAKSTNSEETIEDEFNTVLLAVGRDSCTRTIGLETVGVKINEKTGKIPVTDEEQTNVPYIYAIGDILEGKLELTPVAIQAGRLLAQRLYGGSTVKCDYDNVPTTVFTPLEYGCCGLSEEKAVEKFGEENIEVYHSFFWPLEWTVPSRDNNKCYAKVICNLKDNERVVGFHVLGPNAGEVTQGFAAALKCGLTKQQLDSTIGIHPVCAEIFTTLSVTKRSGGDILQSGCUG
row,Compound,Potency
1,O=c1cc(O)n(-c2ccc(F)cc2)c(=S)[nH]1,"inconclusive: 25.1 µM [inhibitor, full curve]"
2,COC(=O)c1ccc(C(=O)OC)c(-n2c(=O)c3ccccc3c3ccccc3c2=O)c1,"inconclusive: 79.4 µM [inhibitor, single point]"
3,O=C(OCC(=O)N1CCc2ccccc21)C1=COCCO1,"inconclusive: 70.8 µM [inhibitor, partial curve, poor fit]"
4,O=C(Nc1cc(F)ccc1F)c1cnn2c1NC(=C1CC1)C=C2C(F)F,inactive
5,O=Nc1c2cc(-c3ccccc3)[nH]nc-2c2ccccc12,inactive
6,COc1cc(NC(=O)c2ccccc2F)ccc1NC(=O)c1ccccc1Cl,"inconclusive: 100 µM [inhibitor, partial curve, poor fit]"
7,Cc1ccc(S(=O)(=O)NNc2ccccc2)c(C)c1,"inconclusive: 89.1 µM [inhibitor, single point]"
8,COC(=O)C1=C(CSc2nc3c(cc2C#N)CN(C)CC3)OC(N)=C(C#N)C1c1ccc(F)cc1 (configuration not stated),"inconclusive: 14.1 µM [inhibitor, full curve]"
9,Cc1noc(C)c1-c1ccc2ncnc(NC(C)c3ccco3)c2c1 (configuration not stated),"inconclusive: 56.2 µM [inhibitor, single point]"
10,O=C(NCCC(=O)N1CCN(c2ccc(F)cc2)CC1)c1ccco1,"inconclusive: 79.4 µM [inhibitor, single point]"
11,Cc1cccc(C)c1N1CCN(S(=O)(=O)N2CCOCC2)CC1,"inconclusive: 5.01 µM [inhibitor, full curve]"
12,COc1ccc(C(C(=O)NC2CCCCC2)N(C(=O)CCl)c2ccc(Cl)cc2)cc1 (configuration not stated),"inconclusive: 10 µM [inhibitor, partial curve, poor fit]"
13,N#CC1=C(N)NC(SCc2ccc(Cl)cc2)=C(C#N)C12CCCCC2,inactive
14,NC(=S)N/N=C/c1ccc2c(c1)OCCO2,"inconclusive: 35.5 µM [inhibitor, single point]"
15,COc1cccc(/C=N/NC(=O)N/N=C/c2cccc(OC)c2O)c1O,inactive
16,Cc1cc(O)c(C(c2ccc(F)cc2)N2CCN(c3ccccc3)CC2)c(=O)n1Cc1ccco1 (configuration not stated),"inconclusive: 10 µM [inhibitor, partial curve, poor fit]"
17,COc1ccc(C(=O)N/C(=C\c2ccco2)C(=O)NCc2ccco2)cc1,"inconclusive: 89.1 µM [inhibitor, single point]"
18,N#Cc1nc(-c2ccc(OCc3ccccc3)cc2)oc1NCc1cccnc1,inactive
19,Cc1ccc(O)c(NC2=C(Cl)C(=O)N(Cc3ccccc3)C2=O)c1,active: 10 µM
20,Cc1cc(C(=O)NCc2ccco2)on1,"inconclusive: 100 µM [inhibitor, single point]"
21,COc1ccc(/C=C2\C(=O)ON=C2c2ccccc2)cc1OC,active: 31.6 µM
22,C/C=C1\COC(C(=O)NCc2ccccc2)(C(F)(F)F)C=C1C=C1CCCCC1 (configuration not stated),active: 1 µM
23,O=C(CCS(=O)(=O)c1ccc(F)cc1)Nc1nnc(-c2ccc(F)cc2)o1,"inconclusive: 79.4 µM [inhibitor, single point]"

row,Compound,Potency
1,O=c1c2ccccc2nc(/C=C/c2ccc([N+](=O)[O-])o2)n1CCCO,"inconclusive: 2 µM [inhibitor, full curve, poor fit]"
2,Cc1ccc(S(=O)(=O)NC(=O)Nc2ccc(N(C)C)cc2)cc1,inactive
3,Cc1cccc(C)c1NC(=O)COC(=O)c1ccc([N+](=O)[O-])o1,"inconclusive: 22.4 µM [inhibitor, single point]"
4,CC(=O)N1CCc2cc(Br)cc(S(=O)(=O)CCC(=O)Nc3ccc(C)cc3Cl)c21,"inconclusive: 44.7 µM [inhibitor, partial curve, poor fit]"
5,CCOc1ccc2oc(=O)cc(CN3CCN(c4ccc(Cl)cc4)CC3)c2c1,inactive
6,Cn1nc(C(F)(F)F)c(/C=N/OC(=O)c2ccccc2)c1Sc1ccc(Cl)cc1,inactive
7,CCCCN1CC(=O)N2[C@@H]3c4cc(Br)ccc4OC[C@@H]3[C@H](C(=O)OCC)[C@]2(C)C1=O,"inconclusive: 70.8 µM [inhibitor, partial curve, poor fit]"
8,Nc1nc(NCc2ccc(F)cc2)c2[nH]cnc2n1,inactive
9,C=C1C=CS(=O)(=O)N(C(C)C(=O)OC)C1 (configuration not stated),"inconclusive: 17.8 µM [inhibitor, partial curve, poor fit]"
10,Cc1ccc(Cn2c(C)c(CNC(C)c3ccccc3)c(C(=O)O)c2C)cc1 (configuration not stated),"inconclusive: 79.4 µM [inhibitor, partial curve, poor fit]"
11,Cc1oc(=O)c(NC(=O)c2ccc(Cl)cc2)cc1C(=O)c1ccccc1,"inconclusive: 22.4 µM [inhibitor, partial curve, poor fit]"
12,Cc1cccc(-n2ncc3c2CCCC3NC(=O)CCc2ccncc2)c1C (configuration not stated),inactive
13,Cc1ccc(S(=O)(=O)Cc2nc(-c3ccc(C(=O)NCc4ccccc4F)cc3)oc2C)cc1,"inconclusive: 10 µM [inhibitor, partial curve, poor fit]"
14,Cc1cc(/C=N/Nc2ccc([N+](=O)[O-])cn2)c(C)n1-c1ccc(C(=O)O)cc1,"inconclusive: 28.2 µM [inhibitor, single point]"
15,O=[N+]([O-])c1ccc(/C=[N+](\[O-])[C@@H]2CCCC[C@@H]2/[N+]([O-])=C/c2ccc([N+](=O)[O-])o2)o1,"inconclusive: 15.8 µM [inhibitor, partial curve]"
16,O=C(NC(=S)NNC(=O)[C@H]1C[C@@H]1c1ccccc1)c1ccc(F)cc1,"inconclusive: 44.7 µM [inhibitor, partial curve, poor fit]"
17,C/C(CC(=O)Nc1cccc(Br)c1)=N\NC(=O)c1ccc(O)cc1O,"inconclusive: 44.7 µM [inhibitor, partial curve, poor fit]"
18,Cc1cccc(N2CCN(C(=O)c3ccc4c(c3)c(C)c(C)n4C)CC2C)c1 (configuration not stated),"inconclusive: 89.1 µM [inhibitor, single point]"
19,COc1ccccc1NC(=O)Cn1cncc1-c1ccc([N+](=O)[O-])cc1,"inconclusive: 89.1 µM [inhibitor, single point]"
20,CC1CCN(S(=O)(=O)c2nnc(NC(=O)c3cccc(F)c3)s2)CC1,inactive
21,OC(CNCc1ccc(-c2ccccc2)cc1)c1ccccc1 (configuration not stated),inactive
22,Oc1ccc(CN2CCC(Cc3ccccc3)CC2)c2cccnc12,inactive
23,CC(=O)c1ccc(-c2cccc(C3C4C=CCCC4(C)C(=O)N3Cc3ccccc3)c2)cc1 (configuration not stated),"inconclusive: 20 µM [inhibitor, single point]"

row,Compound,Potency
1,CCOCCCNC(=O)c1ccc(CS(=O)(=O)Cc2ccccc2F)o1,"inconclusive: 20 µM [inhibitor, full curve]"
2,O=c1c(-c2ccc(O)cc2)coc2cc(O)ccc12,"inconclusive: 8.44 µM [inhibitor, partial curve]"
3,COc1ccc(N2C3=C(CC4=C2CCCC4=O)C(=O)CCC3)cc1,"inconclusive: 35.5 µM [inhibitor, single point]"
4,CC(C)(C)C(=O)n1nc(-c2ccccc2)oc1=O,"inconclusive: 31.6 µM [inhibitor, partial curve, poor fit]"
5,O=C(N/N=C/c1ccco1)c1cccc(S(=O)(=O)Nc2ccccc2Cl)c1,"inconclusive: 89.1 µM [inhibitor, single point]"
6,C/C=C(\C)C(=O)NCCN1C2=NC[C@H](C(C)C)N2C[C@H]1Cc1ccc(O)cc1,inactive
7,Cc1cccc(N2C(=O)CC(Sc3ccccc3C(=O)O)C2=O)c1 (configuration not stated),active: 56.2 µM
8,C=CCOc1cccc(C2C(C(=O)c3ccc(C)o3)=C(O)C(=O)N2c2nccs2)c1 (configuration not stated),"inconclusive: 31.6 µM [inhibitor, single point]"
9,O=C(N/N=C/c1ccc(C(=O)O)cc1)C1=NNC(c2ccccc2)(c2ccccc2)C1,"inconclusive: 89.1 µM [inhibitor, single point]"
10,O=c1cc(N2CCOCC2)[nH]c(=O)n1Cc1ccc(F)cc1,"inconclusive: 17.8 µM [inhibitor, partial curve]"
11,Cc1cc(C)n(C(=O)CNc2ccccc2Cl)n1,inactive
12,NC(CSCc1ccccc1Cl)C(=O)O (configuration not stated),"inconclusive: 50.1 µM [inhibitor, partial curve, poor fit]"
13,Cc1ccccc1-c1nnc(-c2ccc(Br)cc2)o1,inactive
14,COC(=O)c1sc(N2C(=O)C(O)=C(C(=O)c3ccc(C)o3)C2c2ccc(F)cc2)nc1C (configuration not stated),"inconclusive: 20 µM [inhibitor, single point]"
15,Cc1ccc(NCCC(=O)c2ccc(Cl)c(Cl)c2)cc1,"inconclusive: 12.6 µM [inhibitor, partial curve, poor fit]"
16,O=C(CSC(=S)N1CCCC1)N/N=C/c1c(O)[nH]c(=S)[nH]c1=O,"inconclusive: 28.2 µM [inhibitor, partial curve, poor fit]"
17,O=C(C[n+]1ccc(-c2nnc3n2CCC3)cc1)c1ccc(Cl)cc1,"inconclusive: 79.4 µM [inhibitor, partial curve]"
18,CCS(=O)(=O)N1CCN(c2ccc([N+](=O)[O-])c(NC(C)c3ccccc3)c2)CC1 (configuration not stated),inactive
19,Cc1ccc(CNC(=O)Nc2ccc(F)cc2)n1C,"inconclusive: 79.4 µM [inhibitor, single point]"
20,CCOc1ccc(S(=O)(=O)Nc2ccc(F)cc2)c(C)c1C,inactive
21,Cc1ccc(C(=O)/C=C/c2ccc(-c3ccccc3[N+](=O)[O-])o2)cc1,"inconclusive: 17.8 µM [inhibitor, full curve]"
